Test results published in PMC4336329 (PLoS ONE, 2015).
Out of some 310,000 compounds screened, about 2,200 (0.71%) showed an effect of 50% or more. Effects have a minus sign here. This is one part of the list.

Molecular target: human ether-à-go-go-related gene (hERG) potassium channel (human, UniProt Q12809)
Assay: primary screen, population patch clamp on CHO cells stably expressing hERG

human ether-à-go-go-related gene (hERG) potassium channel, sequence (Q12809 whole entry, looked up): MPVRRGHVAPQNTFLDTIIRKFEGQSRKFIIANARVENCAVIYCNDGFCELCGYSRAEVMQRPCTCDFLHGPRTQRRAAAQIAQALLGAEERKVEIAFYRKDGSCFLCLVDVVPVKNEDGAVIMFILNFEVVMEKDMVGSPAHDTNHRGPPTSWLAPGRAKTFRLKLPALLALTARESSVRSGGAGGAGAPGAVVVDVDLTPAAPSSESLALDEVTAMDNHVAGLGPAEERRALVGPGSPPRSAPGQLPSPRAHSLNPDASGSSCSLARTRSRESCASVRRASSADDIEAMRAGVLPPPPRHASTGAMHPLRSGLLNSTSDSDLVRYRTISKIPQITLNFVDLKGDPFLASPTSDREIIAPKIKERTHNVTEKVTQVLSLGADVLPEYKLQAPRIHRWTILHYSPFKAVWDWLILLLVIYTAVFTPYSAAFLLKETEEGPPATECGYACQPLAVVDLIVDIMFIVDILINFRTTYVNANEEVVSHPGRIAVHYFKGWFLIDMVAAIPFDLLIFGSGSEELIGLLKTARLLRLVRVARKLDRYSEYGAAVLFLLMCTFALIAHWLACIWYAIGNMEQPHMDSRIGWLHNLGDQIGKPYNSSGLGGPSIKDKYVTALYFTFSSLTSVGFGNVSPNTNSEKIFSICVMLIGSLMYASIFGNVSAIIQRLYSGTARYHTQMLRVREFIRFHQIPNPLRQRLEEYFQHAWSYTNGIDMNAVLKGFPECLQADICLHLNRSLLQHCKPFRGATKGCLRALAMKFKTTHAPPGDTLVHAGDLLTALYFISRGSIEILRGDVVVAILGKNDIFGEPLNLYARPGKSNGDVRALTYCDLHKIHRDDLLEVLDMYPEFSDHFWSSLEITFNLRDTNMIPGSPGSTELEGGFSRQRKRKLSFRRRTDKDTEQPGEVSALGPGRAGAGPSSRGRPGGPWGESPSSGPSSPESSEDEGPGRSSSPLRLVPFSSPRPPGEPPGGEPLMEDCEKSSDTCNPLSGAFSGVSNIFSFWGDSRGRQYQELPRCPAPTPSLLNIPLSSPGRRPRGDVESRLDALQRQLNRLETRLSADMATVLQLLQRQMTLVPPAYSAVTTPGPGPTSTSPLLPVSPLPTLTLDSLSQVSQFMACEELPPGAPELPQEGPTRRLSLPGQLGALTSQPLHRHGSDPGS

| Compound | hERG current change (%, negative = inhibition) at 1uM [%] |
| --- | --- |
| Cc1cc(C)c(C#N)c(SCc2c(F)cccc2[N+](=O)[O-])n1 | 4.42 |
| CCOc1ccc(NC(=O)C(CC)NC(=O)c2ccccc2CO)cc1 (stereo not shown) | 6.33 |
| O=S(=O)(NC1CCCCC1N1CCN(c2cccc(Cl)c2)CC1)c1ccccc1 (stereo not shown) | 9.03 |
| CN(Cc1ccccc1)C(=O)C1CCN(S(C)(=O)=O)CC1 | 11.2 |
| O=C(Nc1ccc([N+](=O)[O-])cc1)Nc1ccc2[nH]c(=O)[nH]c2c1 | 6.63 |
| CC(C)CC(NC(N)=O)C(=O)NCc1ccc(Cl)cc1 (stereo not shown) | 5.25 |
| O=C(CSc1nnc(CNC(=O)c2ccco2)o1)c1ccc(Cl)cc1 | 7.67 |
| COCCNc1nc(SCC(=O)N2CCN(c3ccccc3OC)CC2)nc2ccccc12 | -92.9 |
| Cc1cc(NC(=O)COC(=O)COc2ccc3c4c(c(=O)oc3c2)CCC4)no1 | -3.06 |
| COc1cc(OC)c(C(=O)/C=C/c2ccccc2)c(O)c1O | 11.3 |
| COc1ccc(-n2c(/C=C/c3ccc(O)c(O)c3)nc3ccccc3c2=O)cc1 | 13.2 |
| Cn1c(SCC(=O)NCc2cccs2)nnc1-c1ccc(O)cc1 | 16.9 |
| CCn1c(O)c(/C(C)=N/N2CCCCC2c2cccnc2)c(=O)[nH]c1=S (stereo not shown) | -6.86 |
| O=C(Nc1ccccc1)c1cc(N2CCOCC2)nc2ccccc12 | 8.28 |
| COc1cccc(CNC(=O)c2nnn(CC(=O)Nc3ccc4c(c3)OCO4)c2N)c1 | 9.62 |
| COCCn1c(SCC(=O)OC(C)C)nnc1-c1ccccc1 | -3 |
| Cc1nn(-c2ccccc2)c2nc(-c3cccs3)cc(C(=O)NN)c12 | -0.0302 |
| O=C(COc1cccnc1[N+](=O)[O-])Nc1ccc2c(c1)OCO2 | 8.89 |
| COc1ccccc1-c1cc(C(=O)Nc2cc(C)on2)no1 | 1.49 |
| C[C@@H]1CCC(=O)N(CC[C@H](Oc2ccccc2)c2ccccc2)CC1 | 2.95 |
| COc1ccc(/C=N/Nc2nc(-c3ccc(Cl)cc3)cc(C(F)(F)F)n2)c(OC)c1 | 7.97 |
| COc1ccc(CCNC(=O)C2CCCN(Cc3nc(-c4cccc(Cl)c4)oc3C)C2)cc1OC (stereo not shown) | -76.7 |

| Compound | hERG current change (%, negative = inhibition) at 1uM [%] |
| --- | --- |
| Cc1oc2c(c1C(=O)N1CCC(C)CC1)C(=O)c1ccccc1C2=O | 7.14 |
| O=C(NNC(=O)c1cc(-c2ccccc2)nc2ccccc12)Nc1cccc(Cl)c1 | -0.813 |
| O=C(CNC(=O)c1ccc2c(c1)S(=O)(=O)N=C1CCCCCN12)Nc1ccc(F)c(F)c1 | 2.67 |
| CCOC(=O)c1ccc(N2C(=O)C(CC(N)=O)N(NC(=O)c3cccc(F)c3)C2=S)cc1 (stereo not shown) | 16.5 |
| O=C(N/N=C/c1c(O)n(C2CC2)c(=S)[nH]c1=O)c1ccccc1Cl | 14.3 |
| CC1CCN(C(=O)Cn2c3ccccc3c3nc4n(c(=O)c32)CCS4)CC1 | 13.9 |
| O=C1CN(C(=O)COC(=O)c2ccccc2Br)c2ccccc2N1 | -1.52 |
| CC(C)NC(=O)Cn1cc(C(=O)C2CC2)c2ccccc21 | 16.3 |
| COCCNC(=O)c1onc(CSc2cc(C)cc(C)c2)c1C(=O)O | 8.66 |
| CS(=O)(=O)N1N=C(c2ccco2)CC1c1ccc(Cl)cc1Cl (stereo not shown) | 8.78 |
| Cc1ccc(Oc2ccccc2NC(=O)CSCC(=O)Nc2cc(C)on2)cc1 | 5.44 |
| Cc1nnc(SCC(=O)Nc2cccc([N+](=O)[O-])c2)n1CC1CCCO1 (stereo not shown) | 10.3 |
| CN(CCOCCOc1ccc(Cl)cc1Br)Cc1ccccc1 | 0.853 |
| COc1cccc(-c2cc(C(=O)N3CCc4ccccc4C3)no2)c1 | -7.93 |
| Cc1nc2ccccc2c(=O)n1NC(=O)Cc1ccc(Br)cc1 | 5.31 |
| O=[N+]([O-])c1ccc(-c2ccc(S(=O)(=O)NCCN3CCCC3)cc2)cc1 | -77.3 |
| CN1CCN(CC#CCn2c3ccccc3c3ccccc32)CC1 | -7.02 |
| CCn1ccnc1C(O)c1cccc(OC)c1 (stereo not shown) | 8.76 |
| COc1ccc(C(=O)OCCN2CCN(C3=NS(=O)(=O)c4ccccc43)CC2)cc1OC | -1.52 |
| O=C(CN1C(=O)NC2(CCCC2)C1=O)Nc1cc(Cl)ccc1N1CCCC1 | 1.76 |
| CCOC(=O)N1CCN(C(=O)C2CCN(S(=O)(=O)N(CC)CC)CC2)CC1 | 4.1 |
